# Among all 320,000 compounds or so, about 9,100 (2.8%) were called active. Inconclusive means that the source gave no clear call. Such entries were picked first, then a sample of the others. Calls follow the shape of the dose curve; as a rule, active = well fitted activation curve with a large enough effect; inconclusive = small, poorly fitted or top-dose-only effect; inactive = no such curve, though single readings can be large or run the other way. Potencies of inconclusive entries are left out as doubtful fits.
# Assay: qHTS Assay for Rab9 Promoter Activators; also: nearly all actives have a fitted effect of over 60% in size; as to activation, negative = inhibition: % of control where 0% means no effect
# Conditions: Huh7 Rab9 promoter-luciferase reporter, luminescence, 24 h; series mostly up to 9.22 µM; activation, negative = inhibition: at the top concentration
# Procedure, shortened: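 Promoter activation is measured as luciferase luminescence in Huh7 cells stably transfected with a Rab9 promoter–luciferase construct, following 24 h compound exposure at 37 °C and 10 min reagent incubation at ambient temperature.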
# Potency is read from the fitted curve at half-maximal effect; tags tell the direction and shape of the fitted curve.
Structure (SMILES),Potency,"activation, negative = inhibition"
CCN1C(=O)/C(=C\N2CCCCCC2)SC1=S,"inconclusive [activator, partial curve]",–
O=C(Nc1ccncc1)Nc1cccc(Cl)c1Cl,–,inactive: -2.2%
CC(NC(=O)Nc1ccc2c(c1)OCO2)C1CCCO1 (stereo not given),"inconclusive [activator, partial curve]",–
CCOc1cc(CNCc2cccnc2)ccc1OCC(=O)NC(C)(C)C,–,inactive: -4.04%
Nc1nc(-c2ccc3c(c2)CCO3)cs1,"inconclusive [activator, partial curve]",–
Cc1ccc(NC(=O)Nc2cccc(F)c2)nc1,"inconclusive [activator, single point]",–
C#CCN(CC=C)C(=O)c1ccc(OC2CCN(S(=O)(=O)N(C)C)CC2)cc1,"inconclusive [activator, partial curve, poor fit]",–
COc1ccc2sc3ccccc3c(=O)c2c1,"inconclusive [activator, partial curve]",–
Cc1ccc(N(C(=O)Cc2cccs2)C(C(=O)NCC2CCCO2)c2ccncc2)cc1 (stereo not given),"inconclusive [activator, single point]",–
O=C1C(C=NCCCN2CCCC2=O)=C(O)c2ccccc21,"inconclusive [activator, partial curve]",–
Fc1ccccc1CSc1nnc(-c2cccnc2)o1,active: 3.16 µM,–
COc1cc(NC(=O)c2c(F)cccc2F)nc(OC)n1,"inconclusive [activator, partial curve]",–
CN(C)S(=O)(=O)Oc1ccc(C(=O)Nc2cccc(Cl)c2)cc1,"inconclusive [activator, partial curve]",–
Cc1ccc2nc(-c3cccc(NC(=O)c4ccco4)c3)[nH]c2c1,"inconclusive [activator, partial curve]",–
Cc1ccc(-c2nn3cnnc3c3ccccc23)cc1C,–,inactive: -3.6%
CCCC(=O)Nc1ccc(-c2cn3cccnc3n2)cc1,"inconclusive [activator, partial curve]",–
O=C(NNC(=O)c1cccs1)c1ccc(Cl)cc1,"inconclusive [activator, single point]",–
COC(=O)c1cnn2c3c(c(C)nc12)CCCC3,"inconclusive [activator, partial curve]",–
O=C(Nc1cccc(O)c1)c1ccc(C(F)(F)F)cc1,"inconclusive [activator, single point]",–
CN(C)S(=O)(=O)c1ccc(C(=O)Nc2nc3ccccc3[nH]2)cc1,"inconclusive [activator, partial curve]",–
COC(=O)Cn1c(C(=O)N2CCCC2)cc2c1C[C@H]1CN(C(=O)c3ccccc3)[C@@](Cc3ccc(F)cc3)(C(=O)OC)[C@@H]21,"inconclusive [activator, single point]",–
O=[N+]([O-])c1cccc(-c2ncc3ccccn23)c1,"inconclusive [activator, partial curve]",–
CCC(C)(C)c1nnc(NC(=O)c2ccc([N+](=O)[O-])cc2)s1,"inconclusive [activator, single point]",–

Structure (SMILES),Potency,"activation, negative = inhibition"
O=c1[nH]c(SCC2CCCCO2)nc2ccccc12 (stereo not given),"inconclusive [activator, single point]",–
O=C(Nc1ccon1)c1ccc2c(c1)OCO2,"inconclusive [activator, single point]",–
CC(C)Oc1ccc(S(=O)(=O)N2CCCCC2)cc1NC(=O)C1CSC2(C)CCC(=O)N12 (stereo not given),"inconclusive [activator, single point]",–
CCc1ccc(C(=O)C(C)OC(=O)c2nn(C)c(=O)c3ccccc23)cc1 (stereo not given),–,inactive: 0.815%
CC(C)CC(C)NC(=O)c1ccc(C(F)(F)F)cc1 (stereo not given),–,inactive: 0.253%
O=c1c2ccccc2cnn1CCOc1cccc(Br)c1,"inconclusive [activator, partial curve]",–
O=C(Nc1ccccn1)c1ccco1,"inconclusive [activator, partial curve]",–
O=C(OCc1ccccc1)N1CCc2ccccc21,active: 1.58 µM,–
CCOc1ccc(CNC(=O)C2CCCN(S(C)(=O)=O)C2)cc1OC (stereo not given),"inconclusive [activator, single point]",–
Cc1c(-c2cccs2)[n+](=O)c2c(n1[O-])CCCCC2,–,inactive: 4.58%
COc1ccc(CNc2ccc(C)c(C)c2)cc1,"inconclusive [activator, partial curve]",–
CCOc1cc(/C=N\NC(=O)Cn2nc([N+](=O)[O-])cc2C)ccc1OCc1cccc2ccccc12,"inconclusive [activator, single point]",–
CN1CCC(=NOc2ccc([N+](=O)[O-])cc2)CC1,active: 1.58 µM,–
NC(=O)C1=C[C@H](c2ccc(Br)cc2)C[C@H](OCc2ccc(CO)cc2)O1,"inconclusive [activator, single point]",–
Cc1cc(N2CCOCC2)nc2ccc(NC(=O)CCC(=O)N3CCN(c4ccc(F)cc4)CC3)cc12,"inconclusive [activator, single point]",–
COC(=O)CSc1ncnc2c1sc1nc3c(cc12)COC(C)(C)C3,"inconclusive [activator, partial curve]",–
CCOc1ccc(/C=C2\SC(=S)N(CCC(=O)Nc3cccc(C(=O)O)c3)C2=O)cc1,"inconclusive [activator, single point]",–
CC(Oc1ccc(Cl)cc1Cl)c1nc(-c2ccccn2)no1 (stereo not given),"inconclusive [activator, partial curve]",–
N/C(=N\O)c1ccc(NC(=O)c2ccc(Br)o2)cc1,"inconclusive [activator, partial curve]",–
COc1ccc(C(=O)n2cnc3ccccc32)cc1[N+](=O)[O-],–,inactive: 0.407%
COc1cc(NC(=O)COc2c(C)cc(C)cc2[N+](=O)[O-])c(OC)cc1Cl,–,inactive: -2.23%
C=CCN1CCN(C(=O)c2cc3c(s2)CCC(CC)C3)CC1 (stereo not given),"inconclusive [activator, single point]",–

# From PubChem BioAssay AID485297 (National Center for Advancing Translational Sciences (NCATS), 2010)
